{"source": "the supplement of paper PMC8728848", "binders": {"B1": {"name": "CwpV (Clostridium difficile), B6EFG6 (protein)", "chain": "MKIPKKIAAMLTVTMIAGSSTAGIASAQTVATNLTGQERYETAVKISQDGWKNADEVVIVNDSSIADALSATPFAKAKNAPILLTSKDKLNDKTKAEIQRLKAKKVYLIGGTSVLSTNIEKEIKDLKISFERISGAERYQTSLELAKKLDAISDVKKIAVVNGEKGLADAVSVGAPAAQNNMPVILADSKNGTAVADKFIKDAGITQSYVVGGESSISEAVKNKLPNSTRLGGTDRNDTNAKVIKEFYKKTDLKNAYVTKDGMNKQDQLIDALAVGVLGAKNQSPVVLVGKNLSASQKSLVNSKSFDKITKVGGNGNETAFNEMKSLQEVKTVEAKTISELKSAIDKATANDVINFKPTSEVKEAFTIQTDKAVTVNLNGTYTKTVTINMPNGDVNNYAKVDDVVIDDVKDGTFVNYGKITNLKVNDKNGAKIENNSKGEIGSLTVASGASQVKVTNGGKITTVTNNSKGTTIDNKGTISSVKGDNSPTISGNSPSSNSSGGSSSSGGSSGGSSGGSSSSKVGQIKFSATDKQIKMASGDKTVDPSDNTYILKLTNGTVKDGDVKANVKVAGLPSGLDYTAVGNRSANTITITVSGTTSQSIQNDLNNVSVLVKAGAVSGTGATDSIANTTFEIKKYVAAPAVGQLTFDATDKQIKMASGDKTVDPSDDTYVLTLTKGTAKDGDIKANVEVTGLPSGLDYTAEGDSSANTITIPVSGTASPAVQTDLDNVSVLVKAGAVSETTATDSAANATFEVKKYVAPAVGQLTFDATDKQIKMASGDKTVDPSDDTYVLTLTKGTAKDGDIKANVEVTGLPSGLDYTAEGDSSANTITITVSGTASQAVQTDLDNVSVLVKAGAVSETTATDSAANATFEVKKYVAPAIGQLTFDATDKQIKMASGDKTVDPSDDTYVLTLTKGTAKDGDIKANVEVTGLPSGLDYTAEGDSSANTITITVSGTASQAVQTDLDNVSVLVKAGAVSETTATDSAANATFEVKKHASDPISTIGKISSGLSSLFNILK"}}, "assay_in_all_cases": "glycan array binding signal (z-score within array); higher = stronger binding", "conditions_in_all_cases": "glycan notation: IUPAC condensed, linker removed", "key": {"[1]": {"target": "Gal(b1-4)GlcNAc(b1-2)[Gal(b1-4)GlcNAc(b1-4)]Man(a1-3)[Gal(b1-4)GlcNAc(b1-2)[Gal(b1-4)GlcNAc(b1-6)]Man(a1-6)]Man(b1-4)GlcNAc(b1-4)GlcNAc", "procedure,_shortened": "(§1)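 Negative Z-scores can be read as non-binding. The Z-score is calculated within each array and then averaged across arrays of one protein sequence at different concentrations or buffers and across linkers. Arrays, 3228 in all, were curated from the Consortium for Functional Glycomics database and kept only where the protein sequence was available.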"}, "[2]": {"target": "Gal(b1-4)GlcNAc(b1-2)[Gal(b1-4)GlcNAc(b1-4)]Man(a1-3)[GlcNAc(b1-4)][Gal(b1-4)GlcNAc(b1-2)Man(a1-6)]Man(b1-4)GlcNAc(b1-4)GlcNAc", "procedure,_shortened": "as §1"}, "[3]": {"target": "Gal(b1-4)GlcNAc(b1-2)[Gal(b1-4)GlcNAc(b1-6)]Man(a1-6)[GlcNAc(b1-4)][Gal(b1-4)GlcNAc(b1-2)Man(a1-3)]Man(b1-4)GlcNAc(b1-4)GlcNAc", "procedure,_shortened": "as §1"}, "[4]": {"target": "Gal(b1-4)GlcNAc(b1-3)Gal(b1-3)GlcNAc", "procedure,_shortened": "as §1"}, "[5]": {"target": "Gal(b1-4)GlcNAc(b1-3)Gal(b1-4)Glc", "procedure,_shortened": "as §1"}, "[6]": {"target": "Gal(b1-4)GlcNAc(b1-3)Gal(b1-4)GlcNAc", "procedure,_shortened": "as §1"}, "[7]": {"target": "Gal(b1-4)GlcNAc(b1-3)Gal(b1-4)GlcNAc(b1-3)Gal(b1-4)GlcNAc", "procedure,_shortened": "as §1"}, "[8]": {"target": "Gal(b1-4)GlcNAc(b1-3)Gal(b1-4)[Fuc(a1-3)GlcNAc(b1-6)]Gal(b1-4)Glc", "procedure,_shortened": "as §1"}, "[9]": {"target": "Gal(b1-4)GlcNAc(b1-3)Gal(b1-4)[Fuc(a1-3)]GlcNAc(b1-3)Gal(b1-4)[Fuc(a1-3)]GlcNAc", "procedure,_shortened": "as §1"}, "[10]": {"target": "Gal(b1-4)GlcNAc(b1-3)GalNAc", "procedure,_shortened": "as §1"}, "[11]": {"target": "Gal(b1-4)GlcNAc(b1-3)[Gal(b1-4)GlcNAc(b1-6)]Gal(b1-4)GlcNAc", "procedure,_shortened": "as §1"}, "[12]": {"target": "Gal(b1-4)GlcNAc(b1-3)[Gal(b1-4)GlcNAc(b1-6)]GalNAc", "procedure,_shortened": "as §1"}, "[13]": {"target": "Gal(b1-4)GlcNAc(b1-3)[GlcNAc(b1-6)]Gal(b1-4)GlcNAc", "procedure,_shortened": "as §1"}, "[14]": {"target": "Gal(b1-4)GlcNAc(b1-6)Gal(b1-4)GlcNAc", "procedure,_shortened": "as §1"}, "[15]": {"target": "Gal(b1-4)GlcNAc(b1-6)GalNAc", "procedure,_shortened": "as §1"}, "[16]": {"target": "Gal(b1-4)GlcNAc(b1-6)[Gal(b1-3)]GalNAc", "procedure,_shortened": "as §1"}, "[17]": {"target": "Gal(b1-6)Gal", "procedure,_shortened": "as §1"}, "[18]": {"target": "Gal3S(b1-3)GalNAc", "procedure,_shortened": "as §1"}, "[19]": {"target": "Gal3S(b1-3)GlcNAc", "procedure,_shortened": "as §1"}, "[20]": {"target": "Gal3S(b1-3)[Fuc(a1-4)]GlcNAc", "procedure,_shortened": "as §1"}, "[21]": {"target": "Gal3S(b1-4)Glc", "procedure,_shortened": "as §1"}, "[22]": {"target": "Gal3S(b1-4)Glc6S", "procedure,_shortened": "as §1"}, "[23]": {"target": "Gal3S(b1-4)GlcNAc", "procedure,_shortened": "as §1"}, "[24]": {"target": "Gal3S(b1-4)GlcNAc6S", "procedure,_shortened": "as §1"}, "[25]": {"target": "Gal3S(b1-4)[Fuc(a1-3)]Glc", "procedure,_shortened": "as §1"}, "[26]": {"target": "Gal3S(b1-4)[Fuc(a1-3)]Glc6S", "procedure,_shortened": "as §1"}, "[27]": {"target": "Gal3S4S(b1-4)GlcNAc", "procedure,_shortened": "as §1"}, "[28]": {"target": "Gal3S6S(b1-4)GlcNAc", "procedure,_shortened": "as §1"}, "[29]": {"target": "Gal3S6S(b1-4)GlcNAc6S", "procedure,_shortened": "as §1"}, "[30]": {"target": "Gal4S(b1-4)GlcNAc", "procedure,_shortened": "as §1"}}, "note": "The other results are listed elsewhere or left out."}
{"binder": "B1", "values": [{"measurement": "glycan array binding signal (z-score)", "setting": "[1]", "result": -0.343}, {"measurement": "glycan array binding signal (z-score)", "setting": "[2]", "result": -0.002}, {"measurement": "glycan array binding signal (z-score)", "setting": "[3]", "result": -0.283}, {"measurement": "glycan array binding signal (z-score)", "setting": "[4]", "result": -0.333}, {"measurement": "glycan array binding signal (z-score)", "setting": "[5]", "result": -0.327}, {"measurement": "glycan array binding signal (z-score)", "setting": "[6]", "result": 0.373}, {"measurement": "glycan array binding signal (z-score)", "setting": "[7]", "result": 0.96}, {"measurement": "glycan array binding signal (z-score)", "setting": "[8]", "result": -0.324}, {"measurement": "glycan array binding signal (z-score)", "setting": "[9]", "result": -0.117}, {"measurement": "glycan array binding signal (z-score)", "setting": "[10]", "result": -0.289}, {"measurement": "glycan array binding signal (z-score)", "setting": "[11]", "result": -0.349}, {"measurement": "glycan array binding signal (z-score)", "setting": "[12]", "result": -0.34}, {"measurement": "glycan array binding signal (z-score)", "setting": "[13]", "result": -0.322}, {"measurement": "glycan array binding signal (z-score)", "setting": "[14]", "result": -0.242}, {"measurement": "glycan array binding signal (z-score)", "setting": "[15]", "result": -0.276}, {"measurement": "glycan array binding signal (z-score)", "setting": "[16]", "result": -0.313}, {"measurement": "glycan array binding signal (z-score)", "setting": "[17]", "result": -0.297}, {"measurement": "glycan array binding signal (z-score)", "setting": "[18]", "result": -0.318}, {"measurement": "glycan array binding signal (z-score)", "setting": "[19]", "result": -0.305}, {"measurement": "glycan array binding signal (z-score)", "setting": "[20]", "result": -0.3}, {"measurement": "glycan array binding signal (z-score)", "setting": "[21]", "result": -0.29}, {"measurement": "glycan array binding signal (z-score)", "setting": "[22]", "result": -0.201}, {"measurement": "glycan array binding signal (z-score)", "setting": "[23]", "result": -0.202}, {"measurement": "glycan array binding signal (z-score)", "setting": "[24]", "result": -0.239}, {"measurement": "glycan array binding signal (z-score)", "setting": "[25]", "result": 0.044}, {"measurement": "glycan array binding signal (z-score)", "setting": "[26]", "result": 0.036}, {"measurement": "glycan array binding signal (z-score)", "setting": "[27]", "result": 0.151}, {"measurement": "glycan array binding signal (z-score)", "setting": "[28]", "result": -0.333}, {"measurement": "glycan array binding signal (z-score)", "setting": "[29]", "result": -0.338}, {"measurement": "glycan array binding signal (z-score)", "setting": "[30]", "result": -0.073}]}
